Test results from PubChem BioAssay AID686970 (National Center for Advancing Translational Sciences (NCATS), 2013).
The campaign covered roughly 360,000 compounds. About 6,000 (1.7%) were called active. The shares of active, inactive and inconclusive entries below differ from those in the screen. Calls follow the shape of the dose curve; as a rule, active = well fitted cell-killing curve with a large enough effect; inconclusive = small, poorly fitted or top-dose-only effect, or effect the other way; inactive = flat fitted curve, though single readings scatter. No potency is given beside an inconclusive call; the fits are too rough.

test: qHTS for induction of synthetic lethality in tumor cells producing 2HG: qHTS for the HT-1080-NT fibrosarcoma cell line; settings: HT-1080-NT fibrosarcoma viability, CellTiter-Glo ATP luminescence, 48 h; activity, negative = less viability: at 46.1 µM (top of the series) unless noted;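 also: NT is the 2HG producing partner of a matched IDH1 knockdown line; nearly all actives have a fitted effect of over 55% in size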;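 as to activity, negative = less viability: 0% = DMSO-treated cells and -100% = media-only wells without cells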
In short: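 Luminescent CellTiter-Glo readout after 48 hours of compound exposure at 37 degrees C defined viability of HT-1080-NT cells. Activity was normalized to DMSO wells and cell-free media wells; concentration-response curves were fitted and assigned curve classes.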
Potency is read from the fitted curve at half-maximal effect; tags tell the direction and shape of the fitted curve.

| SMILES | activity, negative = less viability | Potency |
| --- | --- | --- |
| Cc1ccc(/C=C2\CCOC2=O)cc1 | inactive: 25.2% | – |
| O=C1c2ccccc2C(O)N1Cc1cccs1 (stereo unspecified) | inactive: -0.292% | – |
| CC(C)C[C@@H](COCc1cccc(C(F)(F)F)c1)N1CCN(C(=O)c2ccc(C(F)(F)F)cc2)CCC1=O | – | inconclusive [cytotoxic, single point] |
| CC1CCN(S(=O)(=O)c2ccc3c(c2)CC(C)N3C(=O)C2CCC2)CC1 (stereo unspecified) | – | inconclusive [cytotoxic, single point] |
| Cc1nnc(NC(=O)c2c(-c3ccccc3Cl)noc2C)s1 | inactive: -14.9% | – |
| O=C(c1cnc(Cl)c(Cl)c1)N1CCN(S(=O)(=O)c2ccc3ccccc3c2)CC1 | inactive: -10.1% | – |
| CCOc1ccc(CCNC(=O)COC(=O)c2n[nH]c3ccccc23)cc1OCC | inactive: 2.12% | – |
| CCn1c(CNC(C)=O)nnc1SCC(=O)c1ccc(Br)cc1 | – | active: 12.6 µM |
| COc1ccc(NC(=O)O/N=C/c2c(C)nn(C(C)(C)C)c2C)cc1 | inactive: -16.1% | – |
| COC(=O)c1ccc2c(=O)[nH]c(CCl)nc2c1 | inactive: -1.48% | – |
| O=C(Oc1ccc(Br)cc1C(=O)/C=C/c1ccccc1F)c1ccco1 | – | inconclusive [cytotoxic, partial curve, poor fit] |
| CC[C@@H]1C(=O)[C@H](Cc2ccccc2)[C@H]2CCCC(=O)N3CC[C@@H]1[C@@H]23 | inactive: 10.2% | – |
| O=C(COc1ccc(Br)cc1)Nc1cc(S(=O)(=O)N2CCCCC2)ccc1N1CCCCC1 | inactive: 12.8% | – |
| CCOc1cc(CNC2CCCC2)cc(Cl)c1OCc1ccc(F)cc1 | – | inconclusive [cytotoxic, single point] |
| CC1(Cc2ccccc2OC(F)(F)F)C(=O)Nc2ccc(S(=O)(=O)NC3CCCCC3)cc21 (stereo unspecified) | – | inconclusive [cytotoxic, partial curve] |
| COc1ccc2cc3cc(C(=O)N4CC(C)CC(C)C4)oc3nc2c1 (stereo unspecified) | – | inconclusive [rising, partial curve] |
| C=CCn1c(O)c(N=NC(=O)CNC(=O)c2ccco2)c2ccccc21 | – | inconclusive [cytotoxic, single point] |
| OC(c1ccc(F)cc1)c1ncc(-c2cccc(C(F)(F)F)c2)[nH]1 (stereo unspecified) | inconclusive: -35% [cytotoxic] | – |
| Clc1ccc(Nc2ccc(-n3ccnc3)nn2)cc1Cl | – | inconclusive [cytotoxic, single point] |
| COC(=O)C1=C(C)N(C)C(=O)NC1c1c(O)ccc2ccccc12 (stereo unspecified) | inactive: 1.26% | – |
| O=C(NCCN1C(=O)S/C(=C\c2ccc(Cl)cc2Cl)C1=O)C1=COCCO1 | – | inconclusive [cytotoxic, single point] |
| Cc1cc(C)nc(-n2ncc3c2CC(c2cccc(Cl)c2)CC3=O)n1 (stereo unspecified) | – | inconclusive [cytotoxic, single point] |
| COc1cc2[nH]c(-c3cccc(F)c3)cc(=O)c2cc1OC | – | inconclusive [cytotoxic, single point] |
| COc1ccc(NC(=O)C(c2ccccc2F)n2c(=O)c(-c3cc4ccccc4[nH]3)nc3ccccc32)cc1 (stereo unspecified) | – | inconclusive [cytotoxic, partial curve] |

| SMILES | activity, negative = less viability | Potency |
| --- | --- | --- |
| Cc1cccn2c(=O)c3cc(C(=O)NC4CCCC4)c(=N)n(C4CCCC4)c3nc12 | – | inconclusive [cytotoxic, single point] |
| Cc1ccc(S(=O)(=O)N2CCOCC2)cc1NC(=O)CNc1ccccc1N1CCCC1=O | inactive: 12.1% | – |
| Cc1nn(-c2ccccc2)c(C)c1/C=N/NC(=O)CSc1nc2ccccc2c(=O)n1-c1ccc(Br)cc1 | – | active: 20.6 µM |
| CC(C)N(c1ccccc1)c1ccc(NC(=O)C2CCCO2)cc1 (stereo unspecified) | inactive: 13.7% | – |
| COc1ccc(CN(C)CC(O)COc2ccc(C(=O)c3ccccc3)cc2)c(OC)c1OC (stereo unspecified) | – | active: 20.6 µM |
| CCOc1ccc(-c2n[nH]c(C)c2-c2ccccc2OC)c(O)c1 | – | inconclusive [cytotoxic, single point] |
| Cc1ccc(OCC(=O)NNC(=S)NC(=O)C(C)(C)C)c(Br)c1 | – | inconclusive [cytotoxic, partial curve] |
| C/C(=N\NC(=O)C1(C)CC1(Br)Br)c1ccc([N+](=O)[O-])cc1 (stereo unspecified) | inactive: 0.681% | – |
| CC(C)N1CCc2c(sc(NC(=O)CN3C(=O)c4ccccc4C3=O)c2C(N)=O)C1 | – | inconclusive [rising, full curve] |
| CCN1CCN(S(=O)(=O)c2ccc(Cl)c(C(=O)N(C)CCOc3ccc(Cl)cc3)c2)CC1 | – | inconclusive [cytotoxic, single point] |
| COc1ccc(OCC(=O)Nc2ccccc2N2CCCCC2)cc1 | – | active: 3.26 µM |
| NC(=O)c1nsc(C(=O)N(c2cccc(F)c2)C(C(=O)NC2CCCC2)c2ccco2)c1N (stereo unspecified) | – | inconclusive [cytotoxic, partial curve] |
| CC1CCCN(CC(=O)Nc2ccc(S(=O)(=O)N3C(C)CCCC3C)cc2)C1 (stereo unspecified) | inactive: 0.302% | – |
| CCCCCc1cccnc1 | inactive: 1.52% | – |
| O=c1[nH]c2cccc(Cl)c2n(CCNc2ncc(C(F)(F)F)cc2Cl)c1=O | – | active: 23.1 µM |
| CCOC(=O)c1c(C)[nH]c(C(=O)COC(=O)[C@H](C)NC(=O)c2ccccc2Cl)c1C | inactive: 10.3% | – |
| COC(=O)c1ccc(Cl)cc1N(Cc1c(F)cccc1Cl)S(C)(=O)=O | inconclusive: -13.4% [cytotoxic] | – |
| CC(C)C[C@@H](CN1CCC[C@H]1CN1C(=O)C(=O)NC[C@@H]1Cc1ccc(O)cc1)N1C[C@H](Cc2ccc(O)cc2)N(CC2CCCCCC2)C(=O)C1=O | – | inconclusive [cytotoxic, single point] |
| Cc1c(C(=O)NCCCN2CCOCC2)sc2ncnc(N3CCN(c4ccccc4)CC3)c12 | inconclusive: -32% [cytotoxic] | – |
| Cc1ccc(S(=O)(=O)N2CCCCC2CCNC(=O)C(=O)NCCc2ccco2)cc1 (stereo unspecified) | – | active: 10.3 µM |
| O=C(N/N=C\c1ccc([N+](=O)[O-])o1)C1COc2ccccc2O1 (stereo unspecified) | – | inconclusive [cytotoxic, single point] |
| CN(C)C(=O)NC(Nc1ccc(Cl)cc1Cl)C(Cl)(Cl)Cl (stereo unspecified) | – | inconclusive [cytotoxic, single point] |
| N/N=C1\CCCc2c1[nH]c1ccc([N+](=O)[O-])cc21 | inactive: 10.7% | – |
| COc1ccc(CN2CCN(C(=O)c3ccc(S(=O)(=O)N4CCCCCC4)cc3)CC2)cc1 | – | active: 16.4 µM |

| SMILES | activity, negative = less viability | Potency |
| --- | --- | --- |
| COc1cccc(NC(=O)Nc2nc(-c3ccc(OC)c(OC)c3)cs2)c1 | – | active: 11.6 µM |
| CC(C)C[C@H](N)c1nnc(S(=O)(=O)Cc2cccc(F)c2)o1 | – | inconclusive [cytotoxic, single point] |
| Clc1ccccc1CSc1cnnc2ccccc12 | – | inconclusive [cytotoxic, full curve, poor fit] |
| O=C1N[C@@H](Cc2ccccc2)COC(=O)[C@@H](Cc2ccc(F)cc2)C/C=C\C[C@@H]1CC(=O)N(CCO)Cc1ccccc1 | – | inconclusive [cytotoxic, single point] |
| O=C(NC(=S)Nc1cccc(Cl)c1N1CCCCC1)c1cccs1 | – | active: 3.55 µM |
| Cc1cc(NC(=O)CSc2nc(-c3cccs3)nc3ccccc23)no1 | – | active: 5.8 µM |
| Cn1cc([N+](=O)[O-])c(C(=O)Nc2ccc(-c3nc4ccccc4[nH]3)cc2)n1 | – | inconclusive [cytotoxic, partial curve] |
| O=C1CCC(C2CCc3cc(O)ccc3C2)C1 (stereo unspecified) | inactive: 14.3% | – |
| CN1C2=CC=CC=CC2=[N+](C)C12C=CC(=[N+]([O-])[O-])C=C2[N+](=O)[O-] (stereo unspecified) | inactive: -6.59% | – |
| CCOCCCNS(=O)(=O)c1ccc(NC(=O)N2c3ccccc3Sc3ccccc32)cc1 | – | inconclusive [cytotoxic, single point] |
| COc1ccc(/C=C2/SC(=S)N(CCCC(=O)Nc3ccc(O)cc3)C2=O)cc1 | – | inconclusive [cytotoxic, single point] |
| O=C(CCn1c(=O)[nH]c2ccccc2c1=O)N1CCN(c2cccc(C(F)(F)F)c2)CC1 | inactive: -1.14% | – |
| COc1ccc(NC(=O)c2cccc(S(=O)(=O)N3CCCCC3)c2)c(OC)c1 | inactive: 0.0653% | – |
| COc1cc(-c2nccc3cc4c(cc23)OCO4)cc(OC)c1OC | – | inconclusive [cytotoxic, single point] |
| O=C(O)CC(SCC(=O)Nc1ccc(S(=O)(=O)N2CCCC2)cc1)C(=O)O (stereo unspecified) | – | inconclusive [rising, partial curve] |
| CCOC(=O)C(C(=O)OCC)c1cc(Br)c2noc3c2c1C(=O)c1ccccc1-3 | – | active: 9.2 µM |
| O=C1Nc2ccccc2N=C(c2ccc3c(c2)OCO3)C1N(CCc1ccccc1)C(=O)CSc1ncccn1 (stereo unspecified) | – | inconclusive [cytotoxic, single point] |
| COc1ccccc1N1CCN(C(=O)CSc2nnc3n2C(C)(C)Cc2ccccc2-3)CC1 | – | inconclusive [cytotoxic, single point] |
| COc1cc(OC)cc(C(=O)OCC(=O)Nc2nnc(-c3ccccc3)o2)c1 | inactive: -6.92% | – |
| COC(=O)c1c(NC(=O)CC2SC(N)=NC2=O)sc2c1CCC(C(C)(C)C)C2 (stereo unspecified) | – | inconclusive [cytotoxic, single point] |
| Cc1ccc(C2=NS(=O)(=O)N(C)C(C(=O)NCc3cccs3)=C2)cc1 | inactive: 0% | – |
| CCOc1ccc(NS(=O)(=O)c2ccc(NS(=O)(=O)c3ccccc3)cc2)cc1 | – | inconclusive [cytotoxic, single point] |
| c1cnc(N2CCN(Cc3ccc4c(c3)OCO4)CC2)nc1 | – | inconclusive [rising, full curve, poor fit] |
